The record followed here is paper PMC9911399, “Two distinct binding modes provide the RNA-binding protein RbFox with extraordinary sequence specificity”.

T1: RBFOX1 RRM RbFoxmut (Fox-RRM*) (Homo sapiens, UniProt Q9NWB1 109-208, R118D;E147R;N151S;E152T)
T1 sequence: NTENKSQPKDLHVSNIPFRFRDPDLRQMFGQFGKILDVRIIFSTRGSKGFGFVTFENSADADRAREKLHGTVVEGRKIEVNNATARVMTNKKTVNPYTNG

B1: CGACUUG (DNA:RNA)
RNA: GGGAGACCGGAAUUCAGAUUGUCCCGACUUGUUAAAUCCCGUCGUAGCCACCA
DNA 1: CAATCTGAATTCCGGTCTCCC
DNA 2: TGGTGGCTACGACGGGATT
B2: AUCUGCA (DNA:RNA)
RNA: GGGAGACCGGAAUUCAGAUUGUCCAUCUGCAUUAAAUCCCGUCGUAGCCACCA
DNA 1: CAATCTGAATTCCGGTCTCCC
DNA 2: TGGTGGCTACGACGGGATT
B3: GGUAUAG (DNA:RNA)
RNA: B1 RNA with C25G, A27U, C28A, U30A
DNA 1: CAATCTGAATTCCGGTCTCCC
DNA 2: TGGTGGCTACGACGGGATT
B4: GCCAGAC (DNA:RNA)
RNA: B2 RNA with A25G, U26C, U28A, C30A, A31C
DNA 1: CAATCTGAATTCCGGTCTCCC
DNA 2: TGGTGGCTACGACGGGATT
B5: CUUAAUU (DNA:RNA)
RNA: B1 RNA with G26U, A27U, C28A, U29A, G31U
DNA 1: CAATCTGAATTCCGGTCTCCC
DNA 2: TGGTGGCTACGACGGGATT
B6: UUAUAUC (DNA:RNA)
RNA: B2 RNA with A25U, C27A, G29A, C30U, A31C
DNA 1: CAATCTGAATTCCGGTCTCCC
DNA 2: TGGTGGCTACGACGGGATT
B7: CGAAUCG (DNA:RNA)
RNA: B1 RNA with C28A, U30C
DNA 1: CAATCTGAATTCCGGTCTCCC
DNA 2: TGGTGGCTACGACGGGATT
B8: UGUGAGA (DNA:RNA)
RNA: B2 RNA with A25U, U26G, C27U, U28G, G29A, C30G
DNA 1: CAATCTGAATTCCGGTCTCCC
DNA 2: TGGTGGCTACGACGGGATT
B9: CGAAUGG (DNA:RNA)
RNA: B1 RNA with C28A, U30G
DNA 1: CAATCTGAATTCCGGTCTCCC
DNA 2: TGGTGGCTACGACGGGATT
B10: UCUCUUA (DNA:RNA)
RNA: B1 RNA with C25U, G26C, A27U, G31A
DNA 1: CAATCTGAATTCCGGTCTCCC
DNA 2: TGGTGGCTACGACGGGATT
B11: UGCGUUG (DNA:RNA)
RNA: B1 RNA with C25U, A27C, C28G
DNA 1: CAATCTGAATTCCGGTCTCCC
DNA 2: TGGTGGCTACGACGGGATT
B12: GUACGAU (DNA:RNA)
RNA: B2 RNA with A25G, C27A, U28C, C30A, A31U
DNA 1: CAATCTGAATTCCGGTCTCCC
DNA 2: TGGTGGCTACGACGGGATT
B13: UGCCAUA (DNA:RNA)
RNA: B1 RNA with C25U, A27C, U29A, G31A
DNA 1: CAATCTGAATTCCGGTCTCCC
DNA 2: TGGTGGCTACGACGGGATT
B14: ACCCCUC (DNA:RNA)
RNA: B2 RNA with U26C, U28C, G29C, C30U, A31C
DNA 1: CAATCTGAATTCCGGTCTCCC
DNA 2: TGGTGGCTACGACGGGATT
B15: UAAUGAG (DNA:RNA)
RNA: B2 RNA with A25U, U26A, C27A, C30A, A31G
DNA 1: CAATCTGAATTCCGGTCTCCC
DNA 2: TGGTGGCTACGACGGGATT
B16: CAUAUUC (DNA:RNA)
RNA: B1 RNA with G26A, A27U, C28A, G31C
DNA 1: CAATCTGAATTCCGGTCTCCC
DNA 2: TGGTGGCTACGACGGGATT
B17: CCAAUCU (DNA:RNA)
RNA: B1 RNA with G26C, C28A, U30C, G31U
DNA 1: CAATCTGAATTCCGGTCTCCC
DNA 2: TGGTGGCTACGACGGGATT
B18: GUGCGGG (DNA:RNA)
RNA: B2 RNA with A25G, C27G, U28C, C30G, A31G
DNA 1: CAATCTGAATTCCGGTCTCCC
DNA 2: TGGTGGCTACGACGGGATT
B19: AACGAGC (DNA:RNA)
RNA: B2 RNA with U26A, U28G, G29A, C30G, A31C
DNA 1: CAATCTGAATTCCGGTCTCCC
DNA 2: TGGTGGCTACGACGGGATT
B20: UCGUCUA (DNA:RNA)
RNA: B2 RNA with A25U, U26C, C27G, G29C, C30U
DNA 1: CAATCTGAATTCCGGTCTCCC
DNA 2: TGGTGGCTACGACGGGATT
B21: GGCAUCG (DNA:RNA)
RNA: B1 RNA with C25G, A27C, C28A, U30C
DNA 1: CAATCTGAATTCCGGTCTCCC
DNA 2: TGGTGGCTACGACGGGATT
B22: CGCGGUG (DNA:RNA)
RNA: B1 RNA with A27C, C28G, U29G
DNA 1: CAATCTGAATTCCGGTCTCCC
DNA 2: TGGTGGCTACGACGGGATT
B23: GACUUCC (DNA:RNA)
RNA: B2 RNA with A25G, U26A, G29U, A31C
DNA 1: CAATCTGAATTCCGGTCTCCC
DNA 2: TGGTGGCTACGACGGGATT
B24: CCUUUGG (DNA:RNA)
RNA: B1 RNA with G26C, A27U, C28U, U30G
DNA 1: CAATCTGAATTCCGGTCTCCC
DNA 2: TGGTGGCTACGACGGGATT
B25: GCGGACG (DNA:RNA)
RNA: B2 RNA with A25G, U26C, C27G, U28G, G29A, A31G
DNA 1: CAATCTGAATTCCGGTCTCCC
DNA 2: TGGTGGCTACGACGGGATT
B26: AUAUUGA (DNA:RNA)
RNA: B2 RNA with C27A, G29U, C30G
DNA 1: CAATCTGAATTCCGGTCTCCC
DNA 2: TGGTGGCTACGACGGGATT
B27: GAACGAA (DNA:RNA)
RNA: B2 RNA with A25G, U26A, C27A, U28C, C30A
DNA 1: CAATCTGAATTCCGGTCTCCC
DNA 2: TGGTGGCTACGACGGGATT
B28: ACAACUA (DNA:RNA)
RNA: B2 RNA with U26C, C27A, U28A, G29C, C30U
DNA 1: CAATCTGAATTCCGGTCTCCC
DNA 2: TGGTGGCTACGACGGGATT
B29: AGUUAUU (DNA:RNA)
RNA: B2 RNA with U26G, C27U, G29A, C30U, A31U
DNA 1: CAATCTGAATTCCGGTCTCCC
DNA 2: TGGTGGCTACGACGGGATT
B30: CUCUUAA (DNA:RNA)
RNA: B2 RNA with A25C, G29U, C30A
DNA 1: CAATCTGAATTCCGGTCTCCC
DNA 2: TGGTGGCTACGACGGGATT
B31: UGGCAGU (DNA:RNA)
RNA: B1 RNA with C25U, A27G, U29A, U30G, G31U
DNA 1: CAATCTGAATTCCGGTCTCCC
DNA 2: TGGTGGCTACGACGGGATT

Residue numbers refer to the chain shown, from its start. This is one part of the list.

This assay deals with T1, RBFOX1 RRM RbFoxmut (Fox-RRM*). Nature of the assay: EMSA; HiTS-Eq, 1 nM pool, 10 min; buffer printed only for the single-RNA assays: 10 mM Tris pH 7.5, 150 mM NaCl, 3.4 mM EDTA, 0.001% NP-40, 30 C. The following applies: tags: His6 N-terminal (pET28a); label: 5' 32P. In a few lines:
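Purified wild-type or mutant RbFox RRM at increasing concentrations was equilibrated with 1 nM of 5′-radiolabelled RNA carrying 7 randomized nucleotides for 10 min in 50 µL. Unbound RNA was separated by 8% native PAGE and sequenced. Relative association constants came from read-count changes of each RNA species compared with the control reaction, normalised to the cognate motif.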
(Mobility shift assays separate free from complexed probe on a gel.)
For B1, the binding signal was 0.155 KA relative to UGCAUGU. Then B2, with 0.196 KA relative to UGCAUGU; and B3, with 0.113 KA relative to UGCAUGU; and B4, with 0.0758 KA relative to UGCAUGU. Then B5, with 0.0834 KA relative to UGCAUGU. As to B6, the binding signal was 0.102 KA relative to UGCAUGU. Then B7, with 0.374 KA relative to UGCAUGU; and B8, with 0.138 KA relative to UGCAUGU; and B9, with 0.72 KA relative to UGCAUGU. With B10, the binding signal was 0.131 KA relative to UGCAUGU. Turning to B11, the binding signal is 0.324 KA relative to UGCAUGU. With B12, the binding signal was 0.101 KA relative to UGCAUGU. In the case of B13 it was 0.122 KA relative to UGCAUGU; in that of B14, 0.074 KA relative to UGCAUGU; in that of B15, 0.0885 KA relative to UGCAUGU. In the case of B16 it was 0.0821 KA relative to UGCAUGU; in that of B17, 0.0623 KA relative to UGCAUGU; in that of B18, 0.106 KA relative to UGCAUGU. In the case of B19 it was 0.0667 KA relative to UGCAUGU. For B20, the binding signal is 0.0946 KA relative to UGCAUGU.

As for B21, the binding signal was 0.467 KA relative to UGCAUGU. Then B22, with 0.165 KA relative to UGCAUGU. In the case of B23 it was 0.0416 KA relative to UGCAUGU; in that of B24, 0.0899 KA relative to UGCAUGU; in that of B25, 0.082 KA relative to UGCAUGU. Then B26, with 0.111 KA relative to UGCAUGU; and B27, with 0.297 KA relative to UGCAUGU. As for B28, the binding signal is 0.0743 KA relative to UGCAUGU.

For the molecule B29, the binding signal was 0.102 KA relative to UGCAUGU. In the case of B30 it was 0.0994 KA relative to UGCAUGU; in that of B31, 0.0775 KA relative to UGCAUGU.
